Test results from patent US11685745B2, “Substituted benzoxazole and benzofuran compounds as PDE7 inhibitors” (Dart NeuroScience, LLC, priority 2017, dated 2023).

Target: N-terminal truncated recombinant human PDE7B enzyme (Homo sapiens (Human), UniProt Q9NP56)
Test: biochemical

Compound | IC50
CC(C)c1nc2cc(Cl)c3c(c2o1)C1(CCCCC1)NC(=O)N3 [Example 17, 5′-Chloro-2′-isopropyl-6′H-spiro[cyclohexane-1,9′-oxazolo[5,4-f]quinazolin]-7′(8′H)-one] | 10 to 100 nM
Cn1cc(CNC(=O)c2cc3cc(Cl)c4c(c3o2)C2(CCCCC2)NC(=O)N4)cn1 [Example 358, 5′-Chloro-N-[(1-methyl-1H-pyrazol-4-yl)methyl]-7′-oxo-7′,8′-dihydro-6′H-spiro[cyclohexane-1,9′-furo[2,3-f]quinazoline]-2′-carboxamide] | 10 to 100 nM
CCN1CCN(Cc2nc3cc(Cl)c4c(c3o2)C2(CCCCC2)NC(=O)N4)CC1 [Example 139, 5-Chloro-2-[(4-ethylpiperazin-1-yl)methyl]-7,8-dihydro-6H-spiro[[1,3]oxazolo[5,4-f]quinazoline-9,1′-cyclohexane]-7-one] | 100 to 1000 nM
O=C1Nc2c(Cl)cc3cc(C(=O)NC(CO)Cc4ccccc4)oc3c2C2(CCCCC2)N1 (centres unmarked) [Example 456, 5′-Chloro-N-(1-hydroxy-3-phenylpropan-2-yl)-7′-oxo-7′,8′-dihydro-6′H-spiro[cyclohexane-1,9′-furo[2,3-f]quinazoline]-2′-carboxamide] | 10 to 100 nM
CN(CCc1ccccn1)Cc1cc2cc(Cl)c3c(c2o1)C1(CCCCC1)NC(=O)N3 [Example 543, 5′-Chloro-2′-({methyl[2-(pyridin-2-yl)ethyl]amino}methyl)-7′,8′-dihydro-6′H-spiro[cyclohexane-1,9′-furo[2,3-f]quinazoline]-7′-one] | 10 to 100 nM
O=C1Nc2c(Cl)cc3cc(CN4CCN(CCO)CC4)oc3c2C2(CCCCC2)N1 [Example 487, 5′-Chloro-2′-{[4-(2-hydroxyethyl)piperazin-1-yl]methyl}-7′,8′-dihydro-6′H-spiro[cyclohexane-1,9′-furo[2,3-f]quinazoline]-7′-one] | 100 to 1000 nM
NC(=O)c1nc2cc(Cl)c3c(c2o1)C1(CCCCC1)NC(=O)N3 [Example 25, 5′-Chloro-7′-oxo-7′,8′-dihydro-6′H-spiro[cyclohexane-1,9′-oxazolo[5,4-f]quinazoline]-2′-carboxamide] | 100 to 1000 nM
O=C1Nc2c(Cl)cc3cc(CN[C@@H]4CCOC4)oc3c2C2(CCCCC2)N1 [Example 578, 5′-Chloro-2′-({[(3R)-oxolan-3-yl]amino}methyl)-7′,8′-dihydro-6′H-spiro[cyclohexane-1,9′-furo[2,3-f]quinazoline]-7′-one] | 10 to 100 nM
O=C1Nc2c(Cl)cc3cc(C(=O)NCc4cccc(O)c4)oc3c2C2(CCCCC2)N1 [Example 432, 5′-Chloro-N-[(3-hydroxyphenyl)methyl]-7′-oxo-7′,8′-dihydro-6′H-spiro[cyclohexane-1,9′-furo[2,3-f]quinazoline]-2′-carboxamide] | 100 to 1000 nM
COC1CCN(C(=O)c2cc3cc(Cl)c4c(c3o2)C2(CCCCC2)NC(=O)N4)CC1 [Example 247, 5′-Chloro-2′-(4-methoxypiperidine-1-carbonyl)-7′,8′-dihydro-6′H-spiro[cyclohexane-1,9′-furo[2,3-f]quinazoline]-7′-one] | 100 to 1000 nM
COc1cc(CN(C)C(=O)c2cc3cc(Cl)c4c(c3o2)C2(CCCCC2)NC(=O)N4)cc(OC)c1 [Example 289, 5′-Chloro-N-[(3,5-dimethoxyphenyl)methyl]-N-methyl-7′-oxo-7′,8′-dihydro-6′H-spiro[cyclohexane-1,9′-furo[2,3-f]quinazoline]-2′-carboxamide] | 100 to 1000 nM
O=C1Nc2c(Cl)cc3nc(CN4CCC5(CCOC5)CC4)oc3c2C2(CCCCC2)N1 [Example 49, 5-Chloro-2-{2-oxa-8-azaspiro[4.5]decan-8-ylmethyl}-7,8-dihydro-6H-spiro[[1,3]oxazolo[5,4-f]quinazoline-9,1′-cyclohexane]-7-one] | 10 to 100 nM
O=C1Nc2c(Cl)cc3nc(CNCC4CCOCC4)oc3c2C2(CCCCC2)N1 [Example 84, 5-Chloro-2-{[(oxan-4-ylmethyl)amino]methyl}-7,8-dihydro-6H-spiro[[1,3]oxazolo[5,4-f]quinazoline-9,1′-cyclohexane]-7-one] | 10 to 100 nM
CC(C)(CCO)NCc1cc2cc(Cl)c3c(c2o1)C1(CCCCC1)NC(=O)N3 [Example 516, 5′-Chloro-2′-{[(4-hydroxy-2-methylbutan-2-yl)amino]methyl}-7′,8′-dihydro-6′H-spiro[cyclohexane-1,9′-furo[2,3-f]quinazoline]-7′-one] | 100 to 1000 nM
O=C1Nc2c(Cl)cc3nc(C(=O)N4CCN(CC(F)(F)F)CC4)oc3c2C2(CCCCC2)N1 [Example 195, 5-Chloro-2-[4-(2,2,2-trifluoroethyl)piperazine-1-carbonyl]-7,8-dihydro-6H-spiro[[1,3]oxazolo[5,4-f]quinazoline-9,1′-cyclohexane]-7-one] | 10 to 100 nM
O=C1Nc2c(Cl)cc3cc(C(=O)NC4CC4)oc3c2C2(CCCCC2)N1 [Example 402, 5′-Chloro-N-cyclopropyl-7′-oxo-7′,8′-dihydro-6′H-spiro[cyclohexane-1,9′-furo[2,3-f]quinazoline]-2′-carboxamide] | 100 to 1000 nM

Compound | IC50
CCN(C)C(=O)CNCc1nc2cc(Cl)c3c(c2o1)C1(CCCCC1)NC(=O)N3 [Example 56, 2-({5-Chloro-7-oxo-7,8-dihydro-6H-spiro[[1,3]oxazolo[5,4-f]quinazoline-9,1′-cyclohexane]-2-ylmethyl}amino)-N-ethyl-N-methylacetamide] | 10 to 100 nM
COC(=O)[C@@H]1CCN(Cc2nc3cc(Cl)c4c(c3o2)C2(CCCCC2)NC(=O)N4)C1 [Example 158, Methyl (3R)-1-{5-chloro-7-oxo-7,8-dihydro-6H-spiro[[1,3]oxazolo[5,4-f]quinazoline-9,1′-cyclohexane]-2-ylmethyl}pyrrolidine-3-carboxylate] | 10 to 100 nM
CN(Cc1cccnc1)C(=O)c1cc2cc(Cl)c3c(c2o1)C1(CCCCC1)NC(=O)N3 [Example 425, 5′-Chloro-N-methyl-7′-oxo-N-(pyridin-3-ylmethyl)-7′,8′-dihydro-6′H-spiro[cyclohexane-1,9′-furo[2,3-f]quinazoline]-2′-carboxamide] | 10 to 100 nM
CO[C@H]1CCN(Cc2nc3cc(Cl)c4c(c3o2)C2(CCCCC2)NC(=O)N4)C1 [Example 132, 5-Chloro-2-{[(3S)-3-methoxypyrrolidin-1-yl]methyl}-7,8-dihydro-6H-spiro[[1,3]oxazolo[5,4-f]quinazoline-9,1′-cyclohexane]-7-one] | 10 to 100 nM
O=C1Nc2c(Cl)cc3nc(CNCC(F)(F)C4CCC4)oc3c2C2(CCCCC2)N1 [Example 100, 5-Chloro-2-{[(2-cyclobutyl-2,2-difluoroethyl)amino]methyl}-7,8-dihydro-6H-spiro[[1,3]oxazolo[5,4-f]quinazoline-9,1′-cyclohexane]-7-one] | 100 to 1000 nM
Cc1noc(C)c1CCN(C)Cc1cc2cc(Cl)c3c(c2o1)C1(CCCCC1)NC(=O)N3 [Example 559, 5′-Chloro-2′-({[2-(dimethyl-1,2-oxazol-4-yl)ethyl](methyl)amino}methyl)-7′,8′-dihydro-6′H-spiro[cyclohexane-1,9′-furo[2,3-f]quinazoline]-7′-one] | 10 to 100 nM
O=C1Nc2c(Cl)cc3nc(CN4CCC(O)CC4)oc3c2C2(CCCCC2)N1 [Example 34, 5-Chloro-2-[(4-hydroxypiperidin-1-yl)methyl]-7,8-dihydro-6H-spiro[[1,3]oxazolo[5,4-f]quinazoline-9,1′-cyclohexane]-7-one] | 10 to 100 nM
O=C1Nc2c(Cl)cc3cc(C(=O)N4CCN(C5CC6CCC5C6)CC4)oc3c2C2(CCCCC2)N1 (centres unmarked) [Example 363, 2′-(4-{Bicyclo[2.2.1]heptan-2-yl}piperazine-1-carbonyl)-5′-chloro-7′,8′-dihydro-6′H-spiro[cyclohexane-1,9′-furo[2,3-f]quinazoline]-7′-one] | 10 to 100 nM
O=C1Nc2c(Cl)cc3cc(CNC4CCS(=O)(=O)C4)oc3c2C2(CCCCC2)N1 (centres unmarked) [Example 531, 3-({5′-Chloro-7′-oxo-7′,8′-dihydro-6′H-spiro[cyclohexane-1,9′-furo[2,3-f]quinazoline]-2′-ylmethyl}amino)-thiolane-1,1-dione] | 10 to 100 nM
O=C1Nc2c(Cl)cc3cc(C(=O)NC4CCCC4)oc3c2C2(CCCCC2)N1 [Example 272, 5′-Chloro-N-cyclopentyl-7′-oxo-7′,8′-dihydro-6′H-spiro[cyclohexane-1,9′-furo[2,3-f]quinazoline]-2′-carboxamide] | 100 to 1000 nM
COc1ccccc1CNCc1nc2cc(Cl)c3c(c2o1)C1(CCCCC1)NC(=O)N3 [Example 91, 5-Chloro-2-({[(2-methoxyphenyl)methyl]amino}methyl)-7,8-dihydro-6H-spiro[[1,3]oxazolo[5,4-f]quinazoline-9,1′-cyclohexane]-7-one] | 10 to 100 nM
CN1CCN(Cc2cc3cc(Cl)c4c(c3o2)C2(CCCCC2)NC(=O)N4)CC1 [Example 244, 5′-chloro-2′-[(4-methylpiperazin-1-yl)methyl]-7′,8′-dihydro-6′H-spiro[cyclohexane-1,9′-furo[2,3-f]quinazoline]-7′-one] | 100 to 1000 nM
CN(Cc1ccc2c(c1)OCO2)C(=O)c1cc2cc(Cl)c3c(c2o1)C1(CCCCC1)NC(=O)N3 [Example 457, N-(2H-1,3-Benzodioxol-5-ylmethyl)-5′-chloro-N-methyl-7′-oxo-7′,8′-dihydro-6′H-spiro[cyclohexane-1,9′-furo[2,3-f]quinazoline]-2′-carboxamide] | 10 to 100 nM
O=C1Nc2c(Cl)cc3cc(C(=O)NCc4ccc(F)cc4)oc3c2C2(CCCCC2)N1 [Example 248, 5′-Chloro-N-[(4-fluorophenyl)methyl]-7′-oxo-7′,8′-dihydro-6′H-spiro[cyclohexane-1,9′-furo[2,3-f]quinazoline]-2′-carboxamide] | 100 to 1000 nM
O=C1Nc2c(Cl)cc3cc(C(=O)NCCCN4CCCC4)oc3c2C2(CCCCC2)N1 [Example 420, 5′-Chloro-7′-oxo-N-[3-(pyrrolidin-1-yl)propyl]-7′,8′-dihydro-6′H-spiro[cyclohexane-1,9′-furo[2,3-f]quinazoline]-2′-carboxamide] | 100 to 1000 nM
O=C1Nc2c(Cl)cc3nc(CNC4CCCOCC4)oc3c2C2(CCCCC2)N1 (centres unmarked) [Example 147, 5-Chloro-2-{[(oxepan-4-yl)amino]methyl}-7,8-dihydro-6H-spiro[[1,3]oxazolo[5,4-f]quinazoline-9,1′-cyclohexane]-7-one] | 10 to 100 nM
